In the supplement of paper PMC12355420:
Where “and” joins values, the source holds several entries; their conditions need not be identical. Equal entries are not always repeated. Structures can show the parent of a compound that is named as a salt. The list shows a part of the results. Repeats are few or missing, and single values can be far off.

What follows are compounds tested on HeLa VPS33A reporter cells (assay: relative cell viability (CellMask signal) vs DMSO (fraction of DMSO); HeLa model of a glycosaminoglycan (GAG) storage disease; KI is knock-in and KO knock-out; SDC1 is syndecan 1; higher = less cytotoxic). Conditions: 50 µM; 24 h.
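Also: primary screen of an FDA-approved drug library in HeLa reporter cells in 96-well format, CellMask signal normalized to DMSO-treated wells set as 1, under 0.5 deemed highly cytotoxic.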

| SMILES | relative cell viability |
| --- | --- |
| CN[C@@H]1[C@H](O)[C@H](NC)[C@H]2O[C@@]3(O)C(=O)C[C@@H](C)O[C@H]3O[C@@H]2[C@H]1O [Spectinomycin (hydrochloride hydrate)] | 0.998 |
| Cc1c(Nc2ncccc2C(=O)O)cccc1C(F)(F)F [Flunixin Meglumin] | 1.19 |
| N#C[C@@H]1CCCN1C(=O)CNC12CC3CC(CC(O)(C3)C1)C2 [Vildagliptin (LAF-237)] | 1.45 |
| Nc1c(CC(=O)O)cccc1C(=O)c1ccc(Br)cc1 [Bromfenac Sodium] | 1.01 |
| N#C/C(=C1/SC[C@@H](c2ccc(Cl)cc2Cl)S1)n1ccnc1 [Luliconazole] | 1.1 |
| Nc1ccc(C(=O)O)c(O)c1 [4-Aminosalicylic acid] | 1.02 |
| NC[C@@H]1O[C@H](O[C@H]2[C@@H](O)[C@H](O[C@@H]3[C@@H](O)[C@H](N)C[C@H](N)[C@H]3O[C@H]3O[C@H](CN)[C@@H](O)[C@H](O)[C@H]3N)O[C@@H]2CO)[C@H](N)[C@@H](O)[C@@H]1O [Neomycin sulfate] | 0.89 |
| CC(C)(O/N=C(\C(=O)N[C@@H]1C(=O)N2C(C(=O)[O-])=C(C[n+]3ccccc3)CS[C@H]12)c1csc(N)n1)C(=O)O [Ceftazidime] | 0.946 and 1.09 |
| NNC(=O)c1ccncc1.Nc1ccc(C(=O)O)c(O)c1 [Pasiniazid] | 1.1 |
| Clc1ccc(C(Cn2ccnc2)OCc2ccsc2Cl)c(Cl)c1 (centres undefined) [Tioconazole] | 1.18 |
| CC(C)(C)C(=O)Oc1ccc(S(=O)(=O)Nc2ccccc2C(=O)NCC(=O)O)cc1 [Sivelestat (ONO-5046)] | 1.15 |
| CCOC(=O)[C@H](CCc1ccccc1)N[C@@H](C)C(=O)N1[C@H](C(=O)O)C[C@@H]2CCC[C@@H]21 [Ramipril] | 1.06 |
| CC(O)c1cc(C(=O)N[C@@H](C)Cn2ccc(-c3ccc(C#N)c(Cl)c3)n2)n[nH]1 (some centres undefined) | 1.01 |
| CCOC(=O)c1ccc(N)cc1 [Benzocaine] | 0.916 |
| CC(C)(C)c1nc(-c2cccc(NS(=O)(=O)c3c(F)cccc3F)c2F)c(-c2ccnc(N)n2)s1 | 1.23 and 1.14 |
| Nc1ccc(C(=O)O)c(O)c1 [Sodium 4-Aminosalicylate] | 0.97 |
| CCN(CC)CCOCCOC(=O)C(CC)(CC)c1ccccc1 [Oxeladin Citrate] | 1 |
| CC(=O)CCCCn1c(=O)c2c(ncn2C)n(C)c1=O [Pentoxifylline] | 1 |
| COc1ccccc1O [Guaiacol] | 1.1 |
| CC(C(=O)O)c1ccc2c(c1)[nH]c1ccc(Cl)cc12 (centres undefined) [Carprofen] | 1.03 |

| SMILES | relative cell viability |
| --- | --- |
| O=C[C@H](O)[C@@H](O)[C@H](O)CO [Xylose] | 0.94 |
| CC(C)[C@@H]1CC[C@@H](C)C[C@H]1O [L-Menthol] | 1.02 |
| CCCCC(F)(F)[C@@]1(O)CC[C@H]2[C@@H](CC(=O)[C@@H]2CCCCCCC(=O)O)O1 [Lubiprostone] | 1.03 |
| O=C([O-])c1ccccc1O.[Na+] [Sodium salicylate] | 0.977 |
| CN(C)CCC(c1ccccc1)c1ccccn1 (centres undefined) [Pheniramine Maleate] | 0.839 |
| Cc1c(OCC(F)(F)F)ccnc1C[S+]([O-])c1nc2ccccc2[nH]1 (centres undefined) [Lansoprazole] | 1.04 |
| O=C(O)c1ccccc1O [Salicylic acid] | 1.27 |
| CCC(=O)O[C@]1(C(=O)CCl)[C@@H](C)C[C@H]2[C@@H]3CCC4=CC(=O)C=C[C@]4(C)[C@@]3(F)[C@@H](O)C[C@@]21C [Clobetasol propionate] | 1.05 |
| CC(N)C12CC3CC(CC(C3)C1)C2 (centres undefined) [Rimantadine Hydrochloride] | 1.07 |
| NNc1nncc2ccccc12 [Hydralazine HCl] | 1.03 |
| CNC(=O)c1ccc(N2C(=S)N(c3cnc(C#N)c(C(F)(F)F)c3)C(=O)C23CCC3)cc1F | 1.38 |
| COc1cc(Nc2nc3ccccc3nc2NS(=O)(=O)c2ccc(NC(=O)c3ccc(C)c(OC)c3)cc2)cc(OC)c1 | 0.92 |
| Cc1onc(-c2ccccc2Cl)c1C(=O)N[C@@H]1C(=O)N2[C@@H]1SC(C)(C)[C@@H]2C(=O)O [Cloxacillin Sodium] | 1.03 |
| O=C1C(CC[S+]([O-])c2ccccc2)C(=O)N(c2ccccc2)N1c1ccccc1 (racemic) [(+/-)-Sulfinpyrazone] | 1.13 |
| Cc1c(S(=O)(=O)O)oc2c1C(=O)C(=O)c1c-2ccc2c1CCCC2(C)C [Tanshinone IIA---sulfonic sodium] | 1.03 |
| COc1cccc(OC)c1C(=O)N[C@@H]1C(=O)N2[C@@H]1SC(C)(C)[C@@H]2C(=O)O [Methicillin (sodium salt)] | 1.11 |
| Nc1ccc(O)c(C(=O)O)c1 [Mesalamine] | 0.949 |
| OCCOCCN1CCN(C2=Nc3ccccc3Sc3ccccc32)CC1 [Quetiapine Fumarate] | 1.03 |
| CC(C(=O)O)c1ccc(C(=O)c2cccs2)cc1 (centres undefined) [Suprofen] | 0.962 |
